# Laboratory results reported in PubChem BioAssay AID588591 (National Center for Advancing Translational Sciences (NCATS), 2011).
# About 4,700 (1.2%) of roughly 390,000 compounds were called active. The inconclusive results got no clear call from the source; some entries with a clear call stand among them for comparison. The call rests on the fitted dose curve; in most records, active means well fitted inhibition curve with a large enough effect; inconclusive means small, poorly fitted or top-dose-only effect, or another doubt; inactive means no such curve, though single readings can be large or run the other way. Potencies beside an inconclusive call are fits to weak or partial responses and may not hold up.
# Target: DNA polymerase eta (Homo sapiens) (UniProt Q9Y253)
# Assay: qHTS for Inhibitors of Polymerase Eta
# Details: recombinant Pol eta, fluorescent DNA replication assay; series mostly up to 114 µM; activity change, negative = inhibition: at the top concentration
# Procedure, shortened: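 Pol eta at 10 nM preincubated with compounds 15 min at room temperature; reaction started with fluorescent substrate (50 nM final) and read kinetically at 0 and 10 min.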
# On the % scale 0 is the no-effect control and ±100 the full control effect; potency means the concentration at half of the fitted maximal effect; tags describe the fitted curve by direction and shape.
# UniProt Q9Y253, sequence (Q9Y253 whole entry, looked up): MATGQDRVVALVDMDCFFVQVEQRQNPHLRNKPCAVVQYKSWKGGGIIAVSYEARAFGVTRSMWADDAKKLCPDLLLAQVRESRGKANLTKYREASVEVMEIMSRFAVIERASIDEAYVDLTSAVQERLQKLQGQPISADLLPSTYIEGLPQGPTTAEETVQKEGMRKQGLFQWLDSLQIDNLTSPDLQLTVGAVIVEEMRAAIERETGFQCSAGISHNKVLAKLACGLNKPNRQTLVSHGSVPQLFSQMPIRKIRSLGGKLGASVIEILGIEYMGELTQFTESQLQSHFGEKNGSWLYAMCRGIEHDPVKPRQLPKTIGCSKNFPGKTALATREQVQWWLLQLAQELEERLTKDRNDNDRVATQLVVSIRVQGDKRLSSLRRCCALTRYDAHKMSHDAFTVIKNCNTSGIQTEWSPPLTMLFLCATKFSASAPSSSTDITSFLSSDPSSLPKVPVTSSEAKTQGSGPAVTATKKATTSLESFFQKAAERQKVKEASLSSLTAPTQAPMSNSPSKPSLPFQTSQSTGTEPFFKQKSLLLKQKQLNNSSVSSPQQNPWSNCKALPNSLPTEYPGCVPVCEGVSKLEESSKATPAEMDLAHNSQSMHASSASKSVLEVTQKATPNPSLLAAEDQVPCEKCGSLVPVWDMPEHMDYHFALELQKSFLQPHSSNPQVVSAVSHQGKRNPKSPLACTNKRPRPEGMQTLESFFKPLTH
Compound,"activity change, negative = inhibition",Potency
Cc1ccc(-n2c(=O)c3cccnc3n2CC(=O)Nc2cccc(C)c2C)cc1,inactive: -13.4%,
COc1cc(/C=N/N=C2/C(=O)Nc3ccccc32)cc(OC)c1O,,"inconclusive: 31.6 µM [inhibitor, partial curve, poor fit]"
O=C(COC(=O)c1cnccn1)NC(=O)c1ccccc1,,"inconclusive: 31.6 µM [inhibitor, partial curve, poor fit]"
O=C(O)CN1C(=O)/C(=C\c2ccccc2OCc2ccc(Cl)cc2)SC1=S,,active: 79.4 µM
COc1ccc(NC(=O)CN(c2ccc(C(C)C)cc2)S(=O)(=O)c2c(C)noc2C)cc1OC,inactive: 0.832%,
O=C1c2c(O)cc(O)cc2O[C@H](c2ccc(O)cc2)[C@H]1O,inactive: -11.8%,
Oc1ccc(C[C@H]2CNCCN2CCc2cccc3ccccc23)cc1,inactive: -10.3%,
O=C(Nc1ccc(-c2nc3ncccc3o2)cc1)c1ccco1,,"inconclusive: 17.8 µM [inhibitor, full curve]"
CC(C)CCn1c(=O)c2ccccc2c2ccccc2c1=O,,"inconclusive: 79.4 µM [inhibitor, partial curve, poor fit]"
CN1C(=O)CC(C(=O)O)SC1=Nc1cc(Cl)c(O)c(Cl)c1 (stereo unspecified),,"inconclusive: 14.1 µM [inhibitor, partial curve, poor fit]"
COc1ccc(C(NC(=O)/C=C/c2ccco2)c2ccc(OC)c(OC)c2)cc1 (stereo unspecified),,"inconclusive: 22.4 µM [inhibitor, partial curve, poor fit]"
COc1ccc(-c2csc(NC(=O)CSc3nc4ccccc4c(=O)[nH]3)n2)cc1,,"inconclusive: 22.4 µM [inhibitor, full curve, poor fit]"
Cc1oc(C)c2c(=O)cc(-c3ccc4c(c3)OCO4)cc(OC(=O)c3ccccc3Cl)c12,,"inconclusive: 89.1 µM [inhibitor, partial curve]"
Cc1ccc(-c2nc3c(c(SCC(=O)N4CCOCC4)n2)Cc2c(CO)cnc(C)c2O3)cc1,,"inconclusive: 50.1 µM [inhibitor, partial curve]"
COc1ccc(-c2nc3c4ccccc4[nH]c(=O)n3n2)cc1,,"inconclusive: 79.4 µM [inhibitor, partial curve]"
CC(N)(Cc1ccc(O)c(O)c1)C(=O)O (stereo unspecified),inactive: -2.84% [at 57.1 µM],
C/C(=N\NC(=O)c1ccc(Br)cc1)c1cccc(NC(=O)c2cccnc2)c1,inactive: -15.6%,
O=C(CSc1nnc(NC(=O)C2CC(=O)N(c3ccc(F)cc3)C2)s1)NC1CCCC1 (stereo unspecified),,"inconclusive: 14.1 µM [inhibitor, partial curve, poor fit]"
CC(=O)OCC1=C(C(=O)OC(C)(C)C)N2C(=O)[C@@H](NC(=O)Cc3ccccc3)[C@H]2SC1,,"inconclusive: 44.7 µM [inhibitor, partial curve]"
O=C(COc1cccc(Br)c1)NN=C1c2ccccc2-c2ccccc21,,"inconclusive: 44.7 µM [inhibitor, partial curve]"
O=C(c1ccccc1)c1cc(Cl)ccc1N1C(=O)C=CC1=O,inactive: -6.47%,

Compound,"activity change, negative = inhibition",Potency
O=C1NC(c2ccccn2)Nc2sc3c(c21)CCC3 (stereo unspecified),,"inconclusive: 39.8 µM [inhibitor, single point]"
CCOC(=O)N1CCC(N2Cc3cccc(C(=O)NCc4ccc5c(c4)OCO5)c3C2=O)CC1,,"inconclusive: 20 µM [inhibitor, full curve]"
O=S(=O)(Nc1nc2n(n1)C(c1ccc(F)cc1)C=C(c1ccccc1)N2)c1ccc(Cl)cc1 (stereo unspecified),,"inconclusive: 100 µM [inhibitor, single point]"
NC(=O)C1CCN(C(=O)CN2CCc3ccccc32)CC1,,"inconclusive: 31.6 µM [inhibitor, single point]"
O=C(Nc1ccc(Br)cc1Cl)c1cnccn1,,active: 39.8 µM
COc1cc(OC)c(N(C)S(=O)(=O)c2cccc(C(=O)Nc3nccs3)c2)cc1Cl,,"inconclusive: 79.4 µM [inhibitor, partial curve, poor fit]"
C/C(N)=C(/C#N)C(=O)CSc1nnnn1-c1ccc(C)cc1,,"inconclusive: 79.4 µM [inhibitor, partial curve, poor fit]"
Cc1ccc(CNS(=O)(=O)c2cc(C(=O)Nc3cccc(C(F)(F)F)c3)ccc2F)cc1,inactive: -22.7%,
Cc1cc(Oc2ccc(C)c(Cl)c2)nc(SCC(=O)c2ccccc2)n1,,"inconclusive: 89.1 µM [inhibitor, partial curve, poor fit]"
CCSc1nnc(NC(=O)c2ccc3nc[nH]c3c2)s1,,"inconclusive: 12.6 µM [inhibitor, full curve, poor fit]"
N#Cc1ccccc1CN1C(=O)S/C(=C/c2cccn2-c2cccc(C(=O)O)c2)C1=O,,active: 3.16 µM
N#Cc1ccccc1S(=O)(=O)N1CCN(C(=O)Cc2coc3cc(O)ccc23)CC1,,"inconclusive: 31.6 µM [inhibitor, single point]"
CC(C)Cc1ccc(CN2CCCC(NC(=O)c3nn(C)c(=O)c4ccccc34)C2)cc1 (stereo unspecified),,"inconclusive: 39.8 µM [inhibitor, partial curve, poor fit]"
COc1ccc(OC)c(NC(=O)CN2C(=O)c3ccccc3Sc3ccc(C(=O)N4CCCC4)cc32)c1,,"inconclusive: 89.1 µM [inhibitor, single point]"
Cc1cc([N+](=O)[O-])ccc1P(=O)(O)c1ccc([N+](=O)[O-])cc1C,,"inconclusive: 14.1 µM [inhibitor, full curve, poor fit]"
COC(=O)[C@H](CC(C)C)NC(=O)Cn1cnc2c(NCc3ccccc3)ncnc21,inactive: -11.6%,
Cc1cc(-c2ccc(C)c(S(=O)(=O)N(C)c3ccc(C)c(C)c3)c2)on1,inactive: -19.8%,
COc1cc(/C=C2\S/C(=N/S(=O)(=O)c3ccccc3)NC2=O)c([N+](=O)[O-])cc1OC,,active: 22.4 µM
COc1ccc(Cn2c(-c3ccc(C)cc3)nc3c(c(=O)c4ccccc4n3C)c2=O)cc1,,"inconclusive: 28.2 µM [inhibitor, partial curve, poor fit]"
COc1cc(SC)ccc1C(=O)Nc1ccc(C)cc1,,"inconclusive: 79.4 µM [inhibitor, partial curve, poor fit]"
